Out of some 420,000 compounds screened, about 50,000 (12%) were called active. This list was built around the results that the source calls inconclusive (neither active nor inactive); the mix of calls is not that of the screen. Calls come from the whole dose curve; as a rule, active = well fitted inhibition curve with a large enough effect; inconclusive = small, poorly fitted or top-dose-only effect; inactive = flat fitted curve, though single readings scatter. Potencies of inconclusive entries are left out as doubtful fits.
test: qHTS for Inhibitors of human tyrosyl-DNA phosphodiesterase 1 (TDP1): qHTS in cells in presence of CPT; settings: chicken DT40 Tdp1-/-;hTDP1 cells + 20 nM CPT, ATP luminescence, 48 h; activity change, negative = growth inhibition: at 46.2 µM (top of the series); note: nearly all actives have a fitted effect of over 55% in size
Procedure, shortened: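 Chicken DT40 Tdp1-/- cells complemented with human TDP1, 400 cells/well, exposed to compounds plus 20 nM camptothecin for at least 48 h at 37 C; viability read as ATP content by CellTiter-Glo luminescence.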
% is set by controls: 0 for no effect and ±100 for the full control effect; potency is the fitted concentration of half-maximal effect; tags give direction and shape of the fitted curve.

SMILES	Potency	activity change, negative = growth inhibition
CCOc1ccc2nc(CN3CCN(Cc4ccccc4OCC)C(CCO)C3)ccc2c1 (stereo not given)	active: 23.1 µM	–
C[C@@H]1CN([C@H](C)CO)S(=O)(=O)c2ccc(C#Cc3ccccc3)cc2O[C@H]1CN(C)C(=O)Nc1ccc2c(c1)OCO2	active: 13 µM	–
CC(C)CCNC(=O)c1cc2c(=O)[nH]c3ccccc3c2s1	inconclusive [inhibitor, single point]	–
Cc1cccc(N2C(=O)C(CC(=O)Nc3ccc(F)cc3)N(C3CCCC3)C2=O)c1 (stereo not given)	inconclusive [inhibitor, partial curve]	–
CCOC(=O)C1CCCN(C2=NC(=O)/C(=C/c3ccc(O)c(OCC)c3)S2)C1 (stereo not given)	inconclusive [inhibitor, single point]	–
CN(C(=O)c1cccc(NC(=O)Cc2ccc(NC(=O)C3CCN(C(=O)C4CCC4)CC3)cc2)c1)C1CCCCC1	inconclusive [inhibitor, single point]	–
O=C(NC(=S)Nc1ccccc1O)c1cncc(Br)c1	inconclusive [inhibitor, single point]	–
COc1ccc(S(=O)(=O)NCc2csc(C)n2)cc1OC	–	inactive: 7.4%
Cc1cnc(C(=O)OCC(=O)Nc2ccc(Br)cc2F)cn1	inconclusive [inhibitor, single point]	–
Cc1ccc(C2=NOC(=O)/C2=C\C=C\c2ccccc2)cc1	active: 4.61 µM	–
Fc1ccc(Nc2nc(-c3cccnc3)nc3ccccc23)cc1	inconclusive [inhibitor, single point]	–
CCCC[C@H]1COCCS(=O)(=O)N1Cc1ccc(C)cc1	inconclusive [inhibitor, single point]	–
Cc1ccc(-c2cc(C(=O)N3CCN(S(=O)(=O)c4ccc(Br)s4)CC3)[nH]n2)cc1C	active: 14.6 µM	–
CCC(C)NC(=O)CSc1nnc(-c2cc(-c3ccc(C)cc3)nc3ccccc23)n1N (stereo not given)	inconclusive [inhibitor, single point]	–
O=C(NCc1ccc(Cl)cc1)C1CCN(c2nnc(N3CCCC3=O)s2)CC1	–	inactive: 18.2%
O=C(c1ccc(Cl)cc1)C(CN1CCCC1)c1ccccc1 (stereo not given)	active: 4.11 µM	–
COc1ccccc1NS(=O)(=O)c1cccc(C(=O)N2CCN(C/C=C/c3ccccc3)CC2)c1	active: 20.6 µM	–
Cc1oc2ccc(O)c(CN3CCN(C)CC3)c2c1C(=O)Nc1ccc(C(C)C)cc1	active: 16.4 µM	–
C#C[C@]1(O)CC[C@H]2[C@@H]3CCC4=Cc5oncc5C[C@]4(C)[C@H]3CC[C@@]21C	inconclusive [inhibitor, single point]	–
COc1cc(CNCCNC(=O)c2nonc2N)ccc1OCc1ccc(Cl)cc1	inconclusive [inhibitor, single point]	–
CN1C(=O)N(C)c2ccc(Br)c3cccc1c23	inconclusive [inhibitor, single point]	–
CSc1nc(N)nc2c1ncn2CC(=O)NCc1ccc2[nH]ccc2c1	inconclusive [inhibitor, single point]	–
CC(OC(=O)CNC(=O)C12CC3CC(CC(C3)C1)C2)C(=O)Nc1ccc(S(N)(=O)=O)cc1 (stereo not given)	–	inactive: 11.3%
CCN(CC)C(=O)C1CCCN(C(=O)c2oc3ccc(C)cc3c2C)C1 (stereo not given)	inconclusive [inhibitor, single point]	–

SMILES	Potency	activity change, negative = growth inhibition
CCOc1ccc(S(=O)(=O)N2CCC(C(=O)NCCc3ccc(S(N)(=O)=O)cc3)CC2)cc1	–	inactive: -3.93%
Cc1ccc(C)c(NC(=O)Cn2c(=O)n(Cc3nc(C)no3)c(=O)c3cc4c(cc32)OCO4)c1	inconclusive [inhibitor, single point]	–
COc1ccc(CNc2nc(-c3ccco3)nn2S(=O)(=O)c2ccc3ccccc3c2)cc1OC	inconclusive [inhibitor, single point]	–
Cc1ccc(-n2ncc(C(=O)NC3CC3)c2C2CCN(C(=O)OC(C)(C)C)CC2)cc1	–	inactive: -18.4%
CCOC(=O)C1(CCOC)CCN(C(=O)c2ccccc2-c2cccc(C)c2)CC1	inconclusive [inhibitor, single point]	–
COc1ccc(-c2cc(C(=O)OCC(=O)N3CCCCC3)c3ccccc3n2)cc1OC	inconclusive [inhibitor, single point]	–
O=C(c1ccccc1)C1OC1C(=O)c1ccccc1 (stereo not given)	active: 4.11 µM	–
Cc1nnc(C)c2c(C)n(Cc3ccc4c(c3)OCO4)c(C)c12	active: 13 µM	–
O=C(COC(=O)c1c(Cl)cccc1Cl)NCc1cccs1	–	inactive: -8.05%
c1ccc(CSc2nnc(Cc3ccccc3)o2)cc1	inconclusive [inhibitor, single point]	–
O=C(CCC(=O)OCc1ccc(Br)cc1)Nc1ccccc1	active: 16.4 µM	–
CCc1ccc(NC(=O)Cn2c(=O)n(Cc3ccc4c(c3)OCO4)c(=O)c3oc4ccccc4c32)cc1	inconclusive [inhibitor, single point]	–
COc1ccc(N(/N=C2\Sc3ccccc3C2=O)C(C)=O)cc1	inconclusive [inhibitor, partial curve]	–
C[C@H](O)[C@@H]1C(=O)N2CCc3ccc(-c4ccccc4)cc3[C@@H]2C[C@@H]1N(C)C(=O)NC1CCCCC1	inconclusive [inhibitor, single point]	–
C[C@H]1CN=C(N(C)C)N1CCCCc1ccccc1	inconclusive [inhibitor, partial curve]	–
CC(C)(C)OC(=O)NC1CC2CCCC(C1)N2Cc1ccccc1 (stereo not given)	–	inactive: -17.6%
Fc1ccc(SCCc2ccncc2)cc1	inconclusive [inhibitor, single point]	–
Cc1cc2oc(C(=O)NCCc3ccc(S(N)(=O)=O)cc3)cc(=O)c2cc1C	inconclusive [inhibitor, single point]	–
Cc1ccc(-c2noc(CN(C3CCCCC3)S(=O)(=O)c3ccc(F)cc3)n2)cc1	inconclusive [inhibitor, single point]	–
C=CCc1ccccc1OCC(O)CNC1CCCC1 (stereo not given)	inconclusive [inhibitor, single point]	–
Cc1ccc(S(=O)(=O)C(C#N)c2nc3ccccc3nc2N2CCN(C)CC2)cc1C (stereo not given)	inconclusive [inhibitor, single point]	–
CC(=O)Nc1ccc(NC(=O)CSc2cn(CC(=O)N(C(C)C)C(C)C)c3ccccc23)cc1	–	inactive: -29.2%
CCC(OC(=O)C1=Cc2ccccc2OC1)C(=O)NCc1ccco1 (stereo not given)	–	inactive: -28.1%
COC(=O)c1cc2occc2n1Cc1nc(-c2ccccc2C)oc1C	inconclusive [inhibitor, single point]	–

SMILES	Potency	activity change, negative = growth inhibition
O=C(CC1N=C2c3ccccc3N=C(SCc3ccc(F)cc3)N2C1=O)NCc1ccco1 (stereo not given)	inconclusive [inhibitor, single point]	–
COc1cc(C(=O)OCc2csc(CC(=O)Nc3ccccc3C)n2)ccc1OCC(C)C	inconclusive [inhibitor, single point]	–
CC(C)(C)c1cc2cccnc2n1Cc1cccc(F)c1	inconclusive [inhibitor, single point]	–
COc1cccc(NC(=O)Cn2c3ccccc3c3nc4n(c(=O)c32)CCCS4)c1	inconclusive [inhibitor, partial curve, poor fit]	–
CCn1c(C)c(/C=N/Nc2nc3ccccc3s2)c2ccccc21	active: 17.8 µM	–
COc1ccc(OCCn2cc(C(=O)c3ccco3)c3ccccc32)cc1	active: 20.6 µM	–
COc1cccc(NC(=O)N(Cc2ccco2)C(C)c2cccs2)c1 (stereo not given)	–	inactive: -17.3%
COc1ccc(C(CC(=O)N2CCCCC2)c2c(OC)cc(OC)c3ccc(=O)oc23)cc1 (stereo not given)	active: 20.6 µM	–
Cc1ccccc1COC(=O)c1ccc(-c2nnn(Cc3ccccc3F)n2)cc1	–	inactive: -28%
O=C(CN1CCN(S(=O)(=O)c2ccc(Br)cc2)CC1)N/N=C/c1cccnc1	–	inconclusive: -29% [inhibitor]
COc1ccc2[nH]c(C(=O)N3CCCN(Cc4ccc(F)cc4)CC3)cc2c1	inconclusive [inhibitor, single point]	–
CCC(C)Sc1nc2c([nH]c3ccccc32)c(=O)n1C (stereo not given)	inconclusive [inhibitor, single point]	–
COc1ccc(N=c2ssnc2Cl)cc1	active: 7.31 µM	–
CC1=C(C(=O)N(C)C)CC(CC(=O)NCC2CCCCC2)C(=O)N1Cc1ccc(F)cc1 (stereo not given)	inconclusive [inhibitor, single point]	–
CCc1ccccc1S(=O)(=O)Cc1ccc(C(=O)NC(C)C)o1	inconclusive [inhibitor, partial curve, poor fit]	–
O=C(/C=C/c1cccs1)Nc1ccc(Br)cn1	active: 0.259 µM	–
O=C(CSCc1ccco1)N1CCc2ccccc21	inconclusive [inhibitor, single point]	–
Cc1csc(=O)n1CC(=O)OCC(=O)Nc1ccc(C(N)=O)cc1	–	inactive: -6.98%
O=C(NCc1ccccc1)C1CCCN(C(=O)NCc2ccccc2)C1 (stereo not given)	active: 1.46 µM	–
COc1cc(CCC(=O)OCC(=O)Nc2ccc(F)c(F)c2F)cc(OC)c1OC	–	inactive: -14.1%
O=c1c(-c2ccc([N+](=O)[O-])cc2)coc2c(O)c(O)ccc12	inconclusive [inhibitor, single point]	–
CCOC(=O)c1ccccc1NC(=O)c1ccc2c(SCC(=O)O)c3c(nc2c1)CCCC3	inconclusive [inhibitor, single point]	–

From PubChem BioAssay AID686979 (National Center for Advancing Translational Sciences (NCATS), 2013)
